# Source: paper PMC12136788
# The other results are listed elsewhere or left out.
# T1: UNK ZnF1-6 (called full-length) (human, UniProt Q9C0B0 30-357)
# T1 sequence: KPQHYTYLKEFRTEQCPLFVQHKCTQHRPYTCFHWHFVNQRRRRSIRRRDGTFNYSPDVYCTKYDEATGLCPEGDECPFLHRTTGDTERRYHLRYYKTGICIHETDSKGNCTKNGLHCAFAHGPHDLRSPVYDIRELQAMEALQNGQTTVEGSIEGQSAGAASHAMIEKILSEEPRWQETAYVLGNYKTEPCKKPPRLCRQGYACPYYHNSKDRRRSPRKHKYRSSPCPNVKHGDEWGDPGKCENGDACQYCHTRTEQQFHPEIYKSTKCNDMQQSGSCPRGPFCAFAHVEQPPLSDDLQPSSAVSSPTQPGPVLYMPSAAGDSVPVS
# B1: chr9:83661418:83661519:-|3pUTR|ENSG00000135018|msi1|total|mutant (ssRNA)
# RNA: GGGAGUUCUACAGUCCGACGAUCUACCGUUGGGUGACCAGAUUUUGUCCUGCAUCUGUCCAGUUUAUUUGCUUUUUAAACAUCCGCCUAUGGCCGUAAUUUAUGCCGAAUAAAAGCAUUAAAAAGAAGCAAAUCAUUUGCACUCAACAGAGGAUUGAGCAUCA
# B2: chr17:76291014:76294021:-|CDS|ENSG00000129646|control|control|control (ssRNA)
# RNA: GGGAGUUCUACAGUCCGACGAUCAGAAUGAGUUCUAGUUUCCCCACGGCAGUGGAGACAUUUCAUCUGAUGGGAGAGCUCAGUAGCCUCUAUGUGGGGCUAAAGGAGAGUAUGAAGGAUCUGGAUGAGGAGCAGGCCGGCCAACAACAGAGGAUUGAGCAUCA
# B3: chr16:87831719:87831834:-|3pUTR|ENSG00000103257|msi1_unk|total|mutant (ssRNA)
# RNA: GGGAGUUCUACAGUCCGACGAUCCCUGCGUUUGGAGGCCCCUGGGCUCUCACCCAGUCCCCACCCGCCUGCAGAGAGGGAACCCGGGCACCCCUUGUUUCUGUUGUUCCCGUGAAUUUUUUUCGCUAUGGGAGGCAGCCGAGGCAACAGAGGAUUGAGCAUCA
# B4: chr3:36528868:36528981:+|CDS|ENSG00000144681|unk|FALSE|unique (ssRNA)
# RNA: GGGAGUUCUACAGUCCGACGAUCAGAAUUGGCUUCUUUCCAGCCAACUUUGUUCAGAGACUACAACAAAAUGAGAAGAUUUUUAGAUGUGUUAGAACCUUCAUUGGGUGUAAGGAACAGGGGCAGAUAACACUGAAAGAGAAUCAACAGAGGAUUGAGCAUCA
# B5: ENSG00000070961:be:win_5101|3pUTR|ENSG00000070961|bound_else_gene|NA|bound_elsewhere_windowed (ssRNA)
# RNA: GGGAGUUCUACAGUCCGACGAUCAUGACCACCAUUGUCUUUGAUACAUUUAUUUUAAUUCUUAAGUGGCCAAAUAACAGAUUAGGUAAAAUGAGAUUACAUGAAAAGGUUCUAAAAUGAUAUAUUUAGAUGCAAUAAUUAACCCAACAGAGGAUUGAGCAUCA
# B6: chr6:38153770:38153871:+|3pUTR|ENSG00000156639|msi1|FALSE|unique (ssRNA)
# RNA: GGGAGUUCUACAGUCCGACGAUCGGUGGACAGGAUCAGGAUUCCCUUGAAAGCCCAGGCAGGGUGAGCAGUCCCAGUGGUCCUAGUGCCGCAUCAGAUCCAGGUGGGUGAGGGCAGGAGGCCCCUGCGGAGGCAGCGUGGAUCCAACAGAGGAUUGAGCAUCA
# B7: chr19:45890022:45890622:-|three_prime_utr|ENSG00000176182|control|control|control (ssRNA)
# RNA: GGGAGUUCUACAGUCCGACGAUCUCUCCCCAGCUUGGCGCAGUCGAGGGGGGCGAUGCUCUCUGCCCAUCCCAGCUGCACCCUAGCUCCCUGCUCCAGGGAUGUGAGCACCCACUCCCUGUGCUAGUUAGUGCCUGAUUCUCUCAACAGAGGAUUGAGCAUCA
# B8: chr9:128390415:128390516:+|3pUTR|ENSG00000167118|msi1|FALSE|unique (ssRNA)
# RNA: GGGAGUUCUACAGUCCGACGAUCCUUACAGCUCAUUCUGCUGGGGGUAGAGAUGAGGGGAGGGAGUAAGUUAAACCUUGGACUAGCAAGUAGAAGCCUGGGGGGAUGCGUGUGCCUCAGUUUCCUCCUCCACAACUGAAUAUACAACAGAGGAUUGAGCAUCA
# B9: chr18:54155150:54155251:-|3pUTR|ENSG00000134046|unk|total|mutant (ssRNA)
# RNA: GGGAGUUCUACAGUCCGACGAUCUUUCCACUGGCUUUUGCCUGUAAGAAAAAAAAUGUACCCGAGCACACCGAGCUUUUUAACCGCACUAACCAAUGCCUUUUCCGAUGUAUUUUUGAUGUAUAUAUCUAUUAUUCAAAAAAUCAACAGAGGAUUGAGCAUCA
# B10: chr11:63758435:63758536:+|3pUTR|ENSG00000133318|msi1|total|mutant (ssRNA)
# RNA: GGGAGUUCUACAGUCCGACGAUCAGAAAGAAUCAAAUUCACCGGAUAAGUCAAUACCUUAAUGGUGGCCGAGCCUUUACCUGCCGCUUGAAAGGGGAAAGAUUGGAGGUAAGAGAGAAAAUGAAAGAACACCUCUGGGUCCUUCAACAGAGGAUUGAGCAUCA
# B11: chr11:74333230:74333331:-|3pUTR|ENSG00000165434|msi1|FALSE|unique (ssRNA)
# RNA: GGGAGUUCUACAGUCCGACGAUCUGAGUCUUUUAUUGAAGGGUUCAAAGUAAGAAAUACUAUGCCAUAGUGUUCUCCAUCUCUAGUGAAGACAGAACCAGAGGGAAUAAGGAUCUUUUUUUUAAAGACAGCAUGGAAAGUUUACAACAGAGGAUUGAGCAUCA
# B12: chr1:51271806:51271833:+|3pUTR|ENSG00000123091|msi1_unk|total|mutant (ssRNA)
# RNA: GGGAGUUCUACAGUCCGACGAUCCAUUUGGGUCAAGGUUUUAUUAAAAGCUACAUUUUAUAACACUGGCACACACAAAAAAGCCGUUUUAAGCUUGUUUGCACAGUUCUUUUUUUCCAUUGGAAAUGGAAUUCAUUGCCUCCGCAACAGAGGAUUGAGCAUCA
# B13: chr1:205715917:205716022:-|3pUTR|ENSG00000069275|msi1_unk|FALSE|overlapping (ssRNA)
# RNA: GGGAGUUCUACAGUCCGACGAUCGAGACAGGCUCUGAAUAACCUUUGUUUUCUCCACUUUUUAUUGAUGAUUUAAAACACUCUAGUCUUCCCCUCAAAUCAUGCAUGCAAAUAGGAGGACAGUGGUGGUGACUCAACUGGAUACAACAGAGGAUUGAGCAUCA
# B14: chr8:23843870:23844003:-|3pUTR|ENSG00000159167|msi1|FALSE|unique (ssRNA)
# RNA: GGGAGUUCUACAGUCCGACGAUCAAUUCCAGAGGACUCUGCUUAAACAAAGCAGUAUAUAAUAACUUUAUUGCAUAUAGAUUUAGUUUUGUAACUUAGCUUUAUUUUUCUUUUCCUGGGAAUGGAAUAACUAUCUCACUUCCACAACAGAGGAUUGAGCAUCA
# B15: ENSG00000182541:stop:overlap|stop_codon|ENSG00000182541|stop_codon|NA|stop_codon (ssRNA)
# RNA: GGGAGUUCUACAGUCCGACGAUCUGGAGGAGUUGGACCACACUGUGAGCAUGCAGUACGGCCUGACCCGGGACUCACCUCCCUAGCCCUGGCCCAGCCCCCUGCAGGGGGGUGUUCUACAGCCAGCAUUGCCCCUCUGUGCCCCAACAGAGGAUUGAGCAUCA
# B16: chr8:41263181:41263319:-|3pUTR|ENSG00000104332|msi1|total|mutant (ssRNA)
# RNA: GGGAGUUCUACAGUCCGACGAUCCUUAAGUGAUUUGCCUGUAAUUUUGGAUGAUUAAAAAAUGUGUAUAUAUAUCCGCUAAUCCGAAAUAUUCUACUUCUCUGUUGUCAAACUGAAAUUCAGAGCAAGUUCCUGAGUGCGUGGCAACAGAGGAUUGAGCAUCA
# B17: ENSG00000120802:stop:overlap|stop_codon|ENSG00000120802|stop_codon|NA|stop_codon (ssRNA)
# RNA: GGGAGUUCUACAGUCCGACGAUCGUGGAACAUUAUUUGGAGGAGAAGUAUGCAAAGUAAUUAAAAAGCGUGGAAAUAAACACUAGUAAAAUUAAGGACAAAAAGACAUCUAUCUUAUCUUUCAGGUACUUUAUGCCAACAUUUCAACAGAGGAUUGAGCAUCA
# B18: chr4:175634378:175634624:-|3pUTR|ENSG00000150625|msi1|FALSE|unique (ssRNA)
# RNA: GGGAGUUCUACAGUCCGACGAUCUUUCUUAUGUUUUGAAAAGAAAAUAGCUUUUUAUACUUUUUAGUUUUGAUUUCGGUAACUAGUUUAACUACAGGUAACCUUCAAAGGGACCAUUGUACAUUAUGAACAAUAGAUAGAGAUCAACAGAGGAUUGAGCAUCA
# B19: chr6:15520333:15520434:+|3pUTR|ENSG00000008083|unk|FALSE|unique (ssRNA)
# RNA: GGGAGUUCUACAGUCCGACGAUCCUUGCUGUAGGAUUCAAGCUGUCUUUGCACUAGCUCUAAAGAAGAUUUUCUUCUGGUUUUAGAGAACUAAUUUUGUUUUAGCAUUAAACUGUUGAACUUUUUUUUGUACUUAGAAAACCUCAACAGAGGAUUGAGCAUCA
# B20: chr14:92688591:92688692:+|3pUTR|ENSG00000100599|msi1|FALSE|unique (ssRNA)
# RNA: GGGAGUUCUACAGUCCGACGAUCUCCCCAUGAGUCCCCCACACCCACCCCAUCCUCGGUCUUUGCAAAGAAGGGCCCGAGCUUAGUUUCCCCAGGACUGGCCUAGGAAGGAGCACCGGCCACAGCUGCUCCCCGUGCCACUCACAACAGAGGAUUGAGCAUCA
# B21: ENSG00000175727:stop:overlap|stop_codon|ENSG00000175727|stop_codon|NA|stop_codon (ssRNA)
# RNA: GGGAGUUCUACAGUCCGACGAUCAGCUGCCAGAGCAGGCGUCCAAGGCUGUCACCAGGAUUGGCAAGAGAUUGGGAGAGUCCUAGCUGCUUAGCUGGCAUGUGGCCGCAUGAGAUGCCAGGAGACCCUUCCCUGCCCAUGGAGCAACAGAGGAUUGAGCAUCA
# B22: chrX:120258281:120258382:+|3pUTR|ENSG00000177485|msi1|total|mutant (ssRNA)
# RNA: GGGAGUUCUACAGUCCGACGAUCUGUACAAUCUUCCCUGUCAUGACUUUAAGUUCUACUUUUCAUUAACCAUGGCCUGAUAUCCGUUCUCCGAGCUUCUUGUGGCAAAAAUAAAAUGAUUUAAUUCUGAUGUUUGAGUGCGUGCAACAGAGGAUUGAGCAUCA
# Molecular target: T1, UNK ZnF1-6 (called full-length)
# Assay: nsRBNS (natural sequence RNA bind-n-seq); RBNS binding buffer (assumed for nsRBNS): 25 mM Tris pH 7.5, 150 mM KCl, 3 mM MgCl2, 0.01% Triton X-100, 500 ug/ml BSA, 20 U/ml SUPERase-In, 4 C; UNK is unkempt and MSI1 is Musashi-1; names of the RNAs are library labels; protein concentration not given here; high values mean tight binding
row,Binder,binding signal [enrichment R]
1,B1,0.284
2,B2,0.915
3,B3,0.698
4,B4,0.53
5,B5,3.73
6,B6,0.932
7,B7,0.708
8,B8,1.14
9,B9,0.82
10,B10,0.565
11,B11,0.392
12,B12,0.464
13,B13,0.807
14,B14,13.9
15,B15,0.881
16,B16,0.347
17,B17,1.07
18,B18,9.58
19,B19,3.46
20,B20,0.976
21,B21,1
22,B22,0.458
